# Source: the supplement of paper PMC8728848
# This is one part of the list.
# B1: MIC4-A5 (Toxoplasma gondii), Q9XZH7 (protein)
# chain: SPDFHDEVECVHTGNIGSKAQTIGEVKRASSLSECRARCQAEKECSHYTYNVKSGLCYPKRGKPQFYKYLGDMTGSRTCDTS
# Legend:
# Experiment in all cases: glycan array binding signal (z-score within array); higher = stronger binding
# Conditions in all cases: glycan notation: IUPAC condensed, linker removed
# [1] = target: Neu5Ac(a2-6)Gal(b1-4)[Fuc(a1-3)]GlcNAc(b1-3)Gal(b1-4)Glc
# Method in brief: (§1)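 From the Consortium for Functional Glycomics database, 3228 arrays were curated, keeping only those whose protein sequence was available. Binding is given as a within-array Z-score averaged across arrays sharing a protein sequence and across linkers. Negative Z-scores can be read as non-binding.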
# Neu5Ac(a2-6)GalNAc = target: Neu5Ac(a2-6)GalNAc
# Method in brief: as §1
# Neu5Ac(a2-8)Neu5Ac = target: Neu5Ac(a2-8)Neu5Ac
# Method in brief: as §1
# [2] = target: Neu5Ac(a2-8)Neu5Ac(a2-3)Gal(b1-3)GalNAc(b1-4)[Neu5Ac(a2-3)]Gal(b1-4)Glc
# Method in brief: as §1
# [3] = target: Neu5Ac(a2-8)Neu5Ac(a2-3)Gal(b1-3)GalNAc(b1-4)[Neu5Ac(a2-8)Neu5Ac(a2-3)]Gal(b1-4)Glc
# Method in brief: as §1
# [4] = target: Neu5Ac(a2-8)Neu5Ac(a2-3)Gal(b1-4)Glc
# Method in brief: as §1
# [5] = target: Neu5Ac(a2-8)Neu5Ac(a2-3)[Gal(b1-3)GalNAc(b1-4)]Gal(b1-4)Glc
# Method in brief: as §1
# [6] = target: Neu5Ac(a2-8)Neu5Ac(a2-3)[GalNAc(b1-4)]Gal(b1-4)Glc
# Method in brief: as §1
# [7] = target: Neu5Ac(a2-8)Neu5Ac(a2-8)Neu5Ac
# Method in brief: as §1
# [8] = target: Neu5Ac(a2-8)Neu5Ac(a2-8)Neu5Ac(a2-8)Neu5Ac
# Method in brief: as §1
# [9] = target: Neu5Ac(a2-8)Neu5Ac(a2-8)Neu5Ac(a2-8)Neu5Ac(a2-8)Neu5Ac
# Method in brief: as §1
# [10] = target: Neu5Ac(a2-8)Neu5Ac(a2-8)Neu5Ac(a2-8)Neu5Ac(a2-8)Neu5Ac(a2-8)Neu5Ac
# Method in brief: as §1
# [11] = target: Neu5Ac(a2-8)Neu5Ac(a2-8)Neu5Ac(a2-8)Neu5Ac(a2-8)Neu5Ac(a2-8)Neu5Ac(a2-8)Neu5Ac
# Method in brief: as §1
# [12] = target: Neu5Ac(a2-8)Neu5Ac(a2-8)Neu5Ac(a2-8)Neu5Ac(a2-8)Neu5Ac(a2-8)Neu5Ac(a2-8)Neu5Ac(a2-8)Neu5Ac
# Method in brief: as §1
# [13] = target: Neu5Ac(a2-8)Neu5Ac(a2-8)Neu5Ac(a2-8)Neu5Ac(a2-8)Neu5Ac(a2-8)Neu5Ac(a2-8)Neu5Ac(a2-8)Neu5Ac(a2-8)Neu5Ac
# Method in brief: as §1
# [14] = target: Neu5Ac(a2-8)Neu5Ac(a2-8)Neu5Ac(a2-8)Neu5Ac(a2-8)Neu5Ac(a2-8)Neu5Ac(a2-8)Neu5Ac(a2-8)Neu5Ac(a2-8)Neu5Ac(a2-8)Neu5Ac
# Method in brief: as §1
# Neu5Ac(b2-3)Gal(b1-4)Glc = target: Neu5Ac(b2-3)Gal(b1-4)Glc
# Method in brief: as §1
# Neu5Ac(b2-6)Gal(b1-4)Glc = target: Neu5Ac(b2-6)Gal(b1-4)Glc
# Method in brief: as §1
# [15] = target: Neu5Ac9Ac(a2-6)Gal(b1-4)GlcNAc
# Method in brief: as §1
# Neu5Gc(a2-3)Gal(b1-4)Glc = target: Neu5Gc(a2-3)Gal(b1-4)Glc
# Method in brief: as §1
# [16] = target: Neu5Gc(a2-6)Gal(b1-4)GlcNAc(b1-2)Man(a1-3)[Neu5Gc(a2-6)Gal(b1-4)GlcNAc(b1-2)Man(a1-6)]Man(b1-4)GlcNAc(b1-4)GlcNAc
# Method in brief: as §1
# Neu5Gc(a2-6)GalNAc = target: Neu5Gc(a2-6)GalNAc
# Method in brief: as §1
# Rha(a1-6)Glc = target: Rha(a1-6)Glc
# Method in brief: as §1
# [17] = target: Xyl(a1-6)Glc(b1-4)[Xyl(a1-6)]Glc(b1-4)[Xyl(a1-6)]Glc(b1-4)Glc
# Method in brief: as §1
# [18] = target: Xyl(b1-2)[Man(a1-3)][Man(a1-6)]Man(b1-4)GlcNAc(b1-4)GlcNAc
# Method in brief: as §1
# [19] = target: Xyl(b1-2)[Man(a1-3)][Man(a1-6)]Man(b1-4)GlcNAc(b1-4)[Fuc(a1-3)]GlcNAc
# Method in brief: as §1
# [20] = target: Xyl(b1-4)Xyl(b1-4)Xyl(b1-4)Xyl(b1-4)Xyl
# Method in brief: as §1
# [21] = target: Xyl(b1-4)Xyl(b1-4)Xyl(b1-4)Xyl(b1-4)Xyl(b1-4)Xyl
# Method in brief: as §1
binder,measurement,setting,value
B1,glycan array binding signal (z-score),[1],-0.323
same,glycan array binding signal (z-score),Neu5Ac(a2-6)GalNAc,-0.323
same,glycan array binding signal (z-score),Neu5Ac(a2-8)Neu5Ac,-0.323
same,glycan array binding signal (z-score),[2],-0.289
same,glycan array binding signal (z-score),[3],-0.029
same,glycan array binding signal (z-score),[4],-0.321
same,glycan array binding signal (z-score),[5],6.1
same,glycan array binding signal (z-score),[6],-0.323
same,glycan array binding signal (z-score),[7],-0.323
same,glycan array binding signal (z-score),[8],-0.323
same,glycan array binding signal (z-score),[9],-0.323
same,glycan array binding signal (z-score),[10],-0.323
same,glycan array binding signal (z-score),[11],-0.323
same,glycan array binding signal (z-score),[12],-0.323
same,glycan array binding signal (z-score),[13],-0.323
same,glycan array binding signal (z-score),[14],-0.323
same,glycan array binding signal (z-score),Neu5Ac(b2-3)Gal(b1-4)Glc,-0.32
same,glycan array binding signal (z-score),Neu5Ac(b2-6)Gal(b1-4)Glc,-0.322
same,glycan array binding signal (z-score),[15],-0.323
same,glycan array binding signal (z-score),Neu5Gc(a2-3)Gal(b1-4)Glc,-0.323
same,glycan array binding signal (z-score),[16],-0.323
same,glycan array binding signal (z-score),Neu5Gc(a2-6)GalNAc,-0.323
same,glycan array binding signal (z-score),Rha(a1-6)Glc,-0.322
same,glycan array binding signal (z-score),[17],-0.323
same,glycan array binding signal (z-score),[18],-0.323
same,glycan array binding signal (z-score),[19],-0.323
same,glycan array binding signal (z-score),[20],-0.323
same,glycan array binding signal (z-score),[21],-0.323
